From the supplement of paper PMC10126150
Sequences with one replicate were seen in a single cluster, so their values are uncertain.

Tested on: ATP
Test: switch fluorescence ratio, 500 uM ATP over buffer (Cy3 cluster intensity, sum of 5 cycles each) (fold (ratio)); higher = stronger signal-on switching upon ATP binding; sequences stand for … in TCGTCGGCAGCGTCAGATGTGTATAAGAGACAGTTTTTTTTTTTTTTTTTTTTTTTTT…TC
Settings: aptamer strand: ATP DNA aptamer (quencher-CACCTGGGGGAGTATTGCGGAGGAAGG + anchor), 100 nM annealed; ATP concentration: 500 uM; one replicate
Summary of the method: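 The fluorescence ratio divides summed target-cycle Cy3 intensity by summed buffer-cycle Cy3 intensity for each cluster and is averaged per switch-domain sequence. Cy3-labelled switching-strand clusters on a modified Illumina MiSeq flow-cell were annealed to 100 nM quencher-labelled ATP aptamer, then imaged in selection buffer and again after 15 min with 500 uM ATP at 22 °C. Five such cycles were run, with NaOH stripping and re-annealing between them, and clusters outside 100-1000 RFU were excluded.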
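Also: ATP exposure 15 min at 22 °C before imaging.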

| Sequence | switch fluorescence ratio |
| --- | --- |
| TCCTAGGGTT | 1.03 |
| TAGAACGCCG | 1.02 |
| GACGGCGCAC | 1.21 |
| GCATGGGACA | 1.01 |
| GTTTTTTCTA | 0.989 |
| CCTTAGGGAG | 0.995 |
| GTTTTCCCTC | 1.03 |
| TACCGCCATG | 1.2 |
| TAAGACATAC | 2.33 |
| GCACGTTGAC | 1.15 |
| ACCGGGCAAC | 1.15 |
| ATACAAGGCC | 0.976 |
| CAGGGTATAT | 0.988 |
| CGCCCTAAAT | 1.03 |
| TGCAAAGGAT | 1.01 |
| TAGGACCGGG | 0.991 |
| CCGGTGCAC | 1.87 |
| TGCTCTTATA | 0.988 |
| CATTCTGGCA | 1.04 |
| GGAGGTGAGT | 1.04 |
| CCGAGTTTCG | 1.04 |
| CTATGGCGCC | 1.01 |
| TCGTTGCCTC | 1.03 |
| GGATGATGTG | 0.994 |
| GCGGTTAGTT | 1.02 |

| Sequence | switch fluorescence ratio |
| --- | --- |
| TCCAGAATTC | 0.981 |
| TCGTCCTTCG | 1.28 |
| CCCAAGAGTG | 2.17 |
| GAGGTGGGCA | 1.08 |
| TCCAGGAACT | 1.03 |
| ACTTAGCTCA | 1.05 |
| ATATTCTGTT | 0.921 |
| TCTACCAACG | 1.34 |
| GGAAGCAGTT | 0.993 |
| CATCATTGTC | 1.11 |
| GCGGGCAGTG | 0.94 |
| GTTGGGTAAT | 1 |
| GATAATGGTG | 1 |
| GAAAACGTCT | 0.992 |
| AGGCGAATGT | 0.969 |
| TTTTGCCGTC | 1.04 |
| TAGCCGGTGG | 1.05 |
| CAATTAGGTA | 1 |
| TGAGAGAGCA | 1.04 |
| TATTTTTTC | 0.988 |
| AGACGTCTTT | 0.999 |
| ACACTGTTGC | 1.02 |
| ACCGTGTTGA | 1.05 |
| TATCTGACGC | 1.25 |
| GTTGAAGCTC | 1.01 |

| Sequence | switch fluorescence ratio |
| --- | --- |
| TGCGCTAAGG | 0.987 |
| ACTTTCCCCA | 1.16 |
| GCCTCATTTA | 1.06 |
| CAGGTAGGAA | 1.22 |
| CTCGCTTGTT | 0.981 |
| CGCATATTA | 1.48 |
| CGGTATTAAT | 1.03 |
| TACCGGCAAT | 1.88 |
| CCCCAGATGA | 2.16 |
| GCCCCGAATT | 0.977 |
| AGTGGCGTGG | 1 |
| TACCATGTAT | 1.04 |
| TTACGGGCTG | 0.998 |
| GACTTTGTCC | 0.973 |
| GTGCGGTCGT | 0.983 |
| GAAACTGCGT | 0.978 |
| AATTGGACTC | 1 |
| TGTGTTCATA | 1.02 |
| ACACGCATCA | 1.19 |
| TAGGACAAAG | 0.965 |
| CACGCATAAT | 1.56 |
| ACCCAACCAG | 1.15 |
| CACGGCGTGC | 1.02 |
| GGCTACGCA | 1.25 |
| TATTTGGTCT | 1.05 |

| Sequence | switch fluorescence ratio |
| --- | --- |
| GGGAATTGAA | 0.94 |
| GGTACTGTTG | 0.986 |
| ATCTTCTCGT | 0.974 |
| TTTAACTACT | 1.04 |
| GCCTTCATGA | 1.02 |
| ATAATAAATT | 1.01 |
| CAGTGGCTTT | 1.03 |
| TCGACCAGGG | 1.15 |
| CGAGCACTGG | 1.35 |
| CTCGTGTCGA | 1.03 |
| TTCAGGGAG | 1.01 |
| CAACAATTG | 0.972 |
| GCTCTCAATT | 1.12 |
| CCGGTTGACA | 1.03 |
| CGAGGCCCTT | 1.46 |
| CTCAGGCAGC | 1.65 |
| TTTAATGCAG | 1.01 |
| GTGGTTCTCT | 1.02 |
| CCAGTAAGAA | 1.06 |
| CCAAAGAAAG | 1 |
| GTTGACGGAC | 1.03 |
| ATACATATCT | 1 |
| TATAACCGCA | 1.5 |
| ATGTGATATC | 0.991 |
| GGTTGACCTT | 1.1 |

| Sequence | switch fluorescence ratio |
| --- | --- |
| CGCCAGCTTG | 0.981 |
| AGGCATGGGT | 1.1 |
| AAAGTTGTGG | 1 |
| CCTCTTCCCT | 1.13 |
| TTGACCTTCG | 1.17 |
| ATTGCTATCG | 1 |
| TGATGGGCCG | 0.948 |
| GGGGGCCTAT | 1.02 |
| GATTGGTAAG | 0.982 |
| TCCGGTCTGT | 1.04 |
| ACTGGAATCT | 1.09 |
| TAATTTGGGC | 0.957 |
| TCAATGCAAT | 1.56 |
| CCTCCCTCGT | 2.09 |
| CCGGCGTGTA | 1.1 |
| TGGCTGCTGC | 0.998 |
| TGCACGTGTG | 0.957 |
| CGCGTGGGG | 1.09 |
| AGTTCCGTGT | 1.04 |
| ATAATTGGAA | 0.992 |
| CGCGAGGGGG | 1.04 |
| GTGAGAAGGC | 0.945 |
| TTGTCAGTAC | 1.57 |
| ACATATATTT | 1.03 |
| AACGAGCAGC | 1.04 |

| Sequence | switch fluorescence ratio |
| --- | --- |
| TAGTACTTCC | 1.95 |
| TGAGACGTAT | 0.953 |
| GCCCAGGACC | 1.05 |
| CAACTTTTCT | 1.03 |
| GTCGGGCTAA | 0.954 |
| GCGCCTTTGA | 1.02 |
| TAAGCATTCT | 0.99 |
| AGTGCCGGTA | 0.955 |
| GTTATACCAG | 1.03 |
| CACTACTACT | 1.13 |
| GTGGTGAATG | 0.993 |
| TACAAACACG | 1.21 |
| TACCCTCCCA | 1.26 |
| GAAACTCGCT | 0.996 |
| ACCGAAGTCC | 1.38 |
| CTAGAACTGG | 1.01 |
| TAGAGGCAG | 0.971 |
| GAAATTGACT | 1.02 |
| GTATGGAAAC | 1.01 |
| AACATTTGAA | 0.997 |
| CAATGTTTGT | 0.983 |
| CACGAGGGTC | 0.958 |
| TGAGGGCCAA | 0.999 |
| CTTAGCACGT | 1.01 |
| TCTACCAA | 1.35 |

| Sequence | switch fluorescence ratio |
| --- | --- |
| AGACAATGTG | 1.05 |
| CTAATAAGAG | 1.03 |
| CTATTGTGTT | 0.979 |
| AGACGTGCTT | 0.952 |
| ATCCTTTGTT | 0.954 |
| AGGCTCTCCA | 0.968 |
| TTTTTGTCG | 1 |
| TCACCTAAGC | 1.09 |
| ATCTTGGCTC | 1.05 |
| TCTCAGGAGG | 0.991 |
| AGCGGCGGTG | 0.938 |
| AGGTGAAGTG | 0.92 |
| ATAATACGCA | 1.19 |
| AGGTCAGATG | 0.974 |
| TTAGTGCGAG | 1.02 |
| GATCGTTTCG | 0.989 |
| GAAGTAAG | 0.971 |
| CAAGAGGCTG | 1.03 |
| ACGCATTAGT | 1.36 |
| ACAATCGCAA | 2.18 |
| CGTGTGCTAC | 1.23 |
| CGAGGCTGCG | 1 |
| ATTTATCCG | 0.989 |
| AAAGTTCGGT | 0.948 |
| CCATCCTTCT | 1.11 |

| Sequence | switch fluorescence ratio |
| --- | --- |
| CTAGATGACC | 1.02 |
| AGTGAGTTTC | 1.01 |
| GAATTTTTCT | 1.01 |
| GGGTTAGGCT | 1.02 |
| AAATGATCAA | 1.01 |
| ACGGTGACAA | 1.11 |
| CTCCAGAACA | 0.971 |
| AATAGGCCTT | 0.992 |
| ACAGTGTAAG | 1.05 |
| GATCAAATCG | 0.96 |
| TTGCAGGAAA | 1.01 |
| ATGTGCGGTT | 1.03 |
| CGAGGCATAG | 3.6 |
| AGTGAGTGGA | 1 |
| ACGGTCCGCT | 1.13 |
| CCTGATACCG | 1.23 |
| AAGAAGATTG | 0.963 |
| AGGTCAGGTA | 0.982 |
| ATTGAAAATC | 1.06 |
| TCATAACC | 1.01 |
| AGGGCGAGGG | 1.02 |
| TCAGGCTAAG | 1.02 |
| TATTTGATCG | 1.02 |
| AGTCAGGTTT | 1.02 |
| TACGGCCCGA | 0.99 |
